Values joined by “and” are separate entries in the source; they are usually repeats but may differ in a detail not shown here. Identical values can stand only once. Out of some 360,000 compounds screened, about 16,000 (4.4%) were called active. This list was built around the results that the source calls inconclusive (neither active nor inactive); the mix of calls is not that of the screen. The call rests on the fitted dose curve; in most records, active means well fitted inhibition curve with a large enough effect; inconclusive means small, poorly fitted or top-dose-only effect; inactive means no such curve, though single readings can be large or run the other way. A potency beside an inconclusive call is a rough fit, not a confirmed value.
Target: Bromodomain adjacent to zinc finger domain protein 2B (Homo sapiens) (UniProt Q9UIF8)
Assay: qHTS Assay for Inhibitors of BAZ2B; further: nearly all actives have a fitted effect of over 60% in size
Settings: AlphaScreen BAZ2B-H3K14Ac peptide displacement; activity change, negative = inhibition: at 114 µM (top of the series)
Summary of the method: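 AlphaScreen displacement: compounds (up to 110uM) incubated 30 min at room temperature with a preformed 50 nM BAZ2B/50 nM biotinylated H3K14Ac peptide complex in PBS pH 7.4 with Tween-20. Donor and acceptor beads at 10 ug/mL final added, 20 min light-protected before reading.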
On the % scale 0 is the no-effect control and ±100 the full control effect; potency means the concentration at half of the fitted maximal effect; tags describe the fitted curve by direction and shape.

UniProt Q9UIF8, sequence (Q9UIF8 whole entry, looked up, the tested form may be a part): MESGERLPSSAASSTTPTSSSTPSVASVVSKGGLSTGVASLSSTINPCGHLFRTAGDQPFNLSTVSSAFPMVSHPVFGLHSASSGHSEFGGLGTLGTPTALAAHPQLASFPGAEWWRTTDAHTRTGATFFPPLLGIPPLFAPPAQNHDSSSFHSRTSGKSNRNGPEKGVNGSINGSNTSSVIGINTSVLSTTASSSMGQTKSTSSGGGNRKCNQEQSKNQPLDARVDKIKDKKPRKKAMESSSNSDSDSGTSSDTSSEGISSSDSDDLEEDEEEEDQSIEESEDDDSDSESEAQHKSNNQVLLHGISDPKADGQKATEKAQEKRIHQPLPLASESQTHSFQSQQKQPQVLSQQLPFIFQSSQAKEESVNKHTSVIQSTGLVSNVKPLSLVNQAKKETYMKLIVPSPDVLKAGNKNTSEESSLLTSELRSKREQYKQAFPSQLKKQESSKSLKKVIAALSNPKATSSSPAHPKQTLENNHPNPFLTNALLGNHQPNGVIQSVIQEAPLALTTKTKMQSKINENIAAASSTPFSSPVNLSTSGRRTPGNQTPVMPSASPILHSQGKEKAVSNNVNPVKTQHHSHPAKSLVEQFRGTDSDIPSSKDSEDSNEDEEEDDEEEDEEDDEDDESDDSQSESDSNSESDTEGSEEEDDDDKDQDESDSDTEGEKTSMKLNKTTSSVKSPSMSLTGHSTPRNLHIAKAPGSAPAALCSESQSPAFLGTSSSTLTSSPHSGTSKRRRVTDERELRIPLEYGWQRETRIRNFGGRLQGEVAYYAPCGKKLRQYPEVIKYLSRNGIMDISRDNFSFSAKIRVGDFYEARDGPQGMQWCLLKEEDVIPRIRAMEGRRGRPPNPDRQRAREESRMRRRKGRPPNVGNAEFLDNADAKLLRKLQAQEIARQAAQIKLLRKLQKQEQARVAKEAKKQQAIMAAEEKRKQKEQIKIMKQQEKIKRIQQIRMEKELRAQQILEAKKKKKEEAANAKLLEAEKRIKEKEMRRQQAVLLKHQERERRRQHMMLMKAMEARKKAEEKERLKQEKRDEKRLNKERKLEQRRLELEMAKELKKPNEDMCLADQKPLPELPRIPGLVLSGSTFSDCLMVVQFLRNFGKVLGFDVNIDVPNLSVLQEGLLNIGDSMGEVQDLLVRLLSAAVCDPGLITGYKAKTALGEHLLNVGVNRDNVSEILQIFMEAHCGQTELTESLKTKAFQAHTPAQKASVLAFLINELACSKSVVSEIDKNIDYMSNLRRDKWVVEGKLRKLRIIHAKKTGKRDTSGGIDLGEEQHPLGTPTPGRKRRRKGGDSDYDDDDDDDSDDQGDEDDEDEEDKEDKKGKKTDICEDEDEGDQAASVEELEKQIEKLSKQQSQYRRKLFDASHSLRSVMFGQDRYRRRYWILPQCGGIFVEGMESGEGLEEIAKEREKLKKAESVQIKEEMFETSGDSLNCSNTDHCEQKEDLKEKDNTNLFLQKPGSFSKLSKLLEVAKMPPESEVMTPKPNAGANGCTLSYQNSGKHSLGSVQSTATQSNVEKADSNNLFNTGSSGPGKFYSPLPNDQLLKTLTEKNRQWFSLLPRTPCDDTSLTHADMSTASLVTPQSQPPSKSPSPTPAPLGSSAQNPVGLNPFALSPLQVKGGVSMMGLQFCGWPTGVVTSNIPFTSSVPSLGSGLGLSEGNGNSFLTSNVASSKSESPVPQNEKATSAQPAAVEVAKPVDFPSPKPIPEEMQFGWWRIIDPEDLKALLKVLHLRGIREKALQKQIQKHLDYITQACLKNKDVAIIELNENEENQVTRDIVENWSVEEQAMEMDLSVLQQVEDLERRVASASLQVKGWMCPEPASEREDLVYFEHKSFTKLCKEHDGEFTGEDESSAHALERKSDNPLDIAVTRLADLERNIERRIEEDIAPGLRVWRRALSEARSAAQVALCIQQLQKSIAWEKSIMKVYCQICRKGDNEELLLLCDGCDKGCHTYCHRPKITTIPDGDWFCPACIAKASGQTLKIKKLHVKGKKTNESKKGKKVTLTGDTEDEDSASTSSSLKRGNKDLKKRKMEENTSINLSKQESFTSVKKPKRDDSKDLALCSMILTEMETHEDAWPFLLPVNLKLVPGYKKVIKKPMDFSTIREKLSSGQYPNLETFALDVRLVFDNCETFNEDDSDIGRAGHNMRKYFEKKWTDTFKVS

Row | SMILES | activity change, negative = inhibition | Potency
1 | C=CCn1c(N)cc(=O)nc1SC(C)C(=O)Nc1cccc2ccccc12 (stereo not given) | inactive: 2.36% | –
2 | Cc1ccc(NC(=O)NCc2c(-n3cccc3)sc3c2CCCC3)c(Cl)c1 | – | inconclusive: 89.1 µM [inhibitor, single point]
3 | Cc1csc(N/N=C/c2c(F)cccc2Cl)n1 | – | inconclusive: 70.8 µM [inhibitor, single point]
4 | CC(Sc1nncn1C)C(=O)Nc1ccc2ccccc2c1 (stereo not given) | inactive: 6.96% | –
5 | CN1CCC(=C2c3ccccc3CC(=O)c3sccc32)CC1 | – | inconclusive: 89.1 µM [inhibitor, single point] and inconclusive: 56.2 µM [inhibitor, partial curve, poor fit]
6 | CCCCN(CC)C(=O)Cn1cc2c(n1)-c1c(oc(C(=O)N3CCCC3)c1C)CC2 | – | inconclusive: 100 µM [inhibitor, single point]
7 | Cc1ccc(/C=c2\s/c(=C(/C#N)C(=O)N3CCCC3)n(Cc3ccco3)c2=O)s1 | – | inconclusive: 8.91 µM [inhibitor, full curve, poor fit]
8 | O=C(CN1CCN(S(=O)(=O)c2cccs2)CC1)NCC1CCCCC1 | inactive: 5.57% | –
9 | CC(=O)C(Sc1nc(-c2ccccc2Cl)nc2c1c(=O)n(C)c(=O)n2C)C(=O)N(C)C (stereo not given) | inactive: 1.4% | –
10 | CCOc1cccc2sc(N(CCCN(C)C)C(=O)Cc3ccccc3)nc12 | – | inconclusive: 89.1 µM [inhibitor, single point]
11 | CCc1ccc(-n2c(CSc3nnnn3-c3ccccc3)nc3ccccc3c2=O)cc1 | inactive: 7.16% | –
12 | O=C(CCn1ccnc1)Nc1cc(Cl)ccc1O | – | inconclusive: 50.1 µM [inhibitor, partial curve]
13 | Cc1nn(-c2ccc(N3CCCCC3)nn2)c(C)c1CCC(=O)Nc1cccc(F)c1 | – | inconclusive: 28.2 µM [inhibitor, full curve]
14 | COc1cc(NS(=O)(=O)c2ccc(Nc3nc(-c4ccccc4)cs3)cc2)nc(OC)n1 | – | active: 50.1 µM
15 | COc1ccc(NC(=O)CC(NCc2ccccn2)C(=O)O)cc1 (stereo not given) | – | active: 3.16 µM
16 | CCOC(=O)N1CCN(Cc2cc(Cl)c3cccnc3c2O)CC1 | – | active: 10 µM
17 | COc1ccc(-c2noc(CSc3nnc(-c4ccncc4)n3-c3ccc(OC)cc3)n2)cc1 | – | inconclusive: 70.8 µM [inhibitor, partial curve]
18 | Cc1cccc(NC(=S)Nn2cnnc2)c1C | – | inconclusive: 89.1 µM [inhibitor, single point]
19 | CCCOc1ccc(-c2c(=O)n(O)c3ccccc3[n+]2[O-])cc1 | – | inconclusive: 89.1 µM [inhibitor, single point]
20 | COc1ccc(C(CC(=O)N2CCCCC2)c2c(OC)cc(OC)c3c(-c4ccccc4)cc(=O)oc23)cc1 (stereo not given) | – | active: 44.7 µM
21 | O=C(CCNC(=O)c1ccc(Br)cc1)Nc1cccc(S(=O)(=O)N2CCCC2)c1 | inactive: -0.839% | –
22 | Cc1ccc(S(=O)(=O)N2CCCCC2)cc1NC(=O)CSc1nccn1C | – | inconclusive: 79.4 µM [inhibitor, single point]
23 | Cc1ccc(S(=O)(=O)NCC(=O)NCC(=O)N2CCN(c3ncccn3)CC2)cc1C | inactive: 20.3% | –
24 | O=C(Nc1cccc(-c2nc3ccccc3[nH]2)c1)c1cccc(NC(=O)c2ccco2)c1 | – | inconclusive: 79.4 µM [inhibitor, single point]

Row | SMILES | activity change, negative = inhibition | Potency
25 | Cc1ccc(NC(=O)C2CCCN(S(=O)(=O)c3ccc4[nH]c(=O)ccc4c3)C2)nc1 (stereo not given) | inactive: -24.8% | –
26 | CCOC(=O)N1CCC(NC(=O)c2ccc3c(c2)ncn3C2CCCC2)CC1 | – | inconclusive: 0.631 µM [inhibitor, full curve, poor fit]
27 | CC(=O)N1CCC(=NNc2nc3ccccc3[nH]2)CC1 | – | active: 28.2 µM
28 | Cc1[nH]n(C(N)=S)c(=O)c1N=Nc1ccc([N+](=O)[O-])cc1Cl | – | active: 28.2 µM
29 | CCOc1ccc(C(CC(=O)O)NC(=O)c2cccs2)cc1OC (stereo not given) | – | inconclusive: 39.8 µM [inhibitor, single point]
30 | COc1ccc(CCNC(=O)C(=O)NCCC2CCCCN2S(=O)(=O)c2ccccc2)cc1 (stereo not given) | inactive: -8.05% | –
31 | COc1ccccc1C(=O)N/C(=C\c1cn(S(=O)(=O)N(C)C)c2ccccc12)C(=O)NCCCN1CCOCC1 | inactive: -5.12% | –
32 | CN(Cc1ccco1)C(=O)C1CCC(=O)N(CCc2cccc(F)c2)C1 (stereo not given) | – | inconclusive: 3.98 µM [inhibitor, full curve, poor fit]
33 | CCn1cc(/C=N\NC(=O)c2ccc3c(c2)c(C)c(C)n3Cc2ccccc2)c(C)n1 | – | inconclusive: 39.8 µM [inhibitor, full curve]
34 | N#C/C(=N\Nc1ccccc1F)C(=N)N1CCCCC1 | – | inconclusive: 56.2 µM [inhibitor, partial curve]
35 | CC(Oc1ccccc1F)C(=O)N1CCC(c2nc3ccccc3o2)CC1 (stereo not given) | – | inconclusive: 89.1 µM [inhibitor, single point]
36 | COc1ccccc1N=Nc1[nH]c2ccc(C)cc2c1O | – | active: 50.1 µM
37 | O=C(NNS(=O)(=O)c1ccc(Cl)cc1)c1cccs1 | – | inconclusive: 89.1 µM [inhibitor, single point]
38 | CCOc1cc(CN2CCCCCC2)ccc1OC | – | inconclusive: 79.4 µM [inhibitor, single point]
39 | COc1ccc(-c2csc(Nc3ccccc3)n2)cc1 | – | inconclusive: 50.1 µM [inhibitor, partial curve]
40 | O=C(Nc1ccc2cn[nH]c2c1)c1c(Cl)cccc1Cl | – | active: 50.1 µM
41 | CC(=O)c1ccc(NC(=O)c2nn(C)c3c2COc2ccccc2-3)cc1 | – | inconclusive: 10 µM [inhibitor, partial curve]
42 | Cc1nc2cc(Cl)ccc2n1-c1ccccc1 | – | inconclusive: 89.1 µM [inhibitor, single point]
43 | CCCCCCCCSc1nnc2[nH]c(=O)cc(N)n12 | inactive: -19.4% | –
44 | CC1=CC(C)(C)N2C(=O)C3(SCC(=O)N3c3ccc(F)cc3)c3cc(C)cc1c32 (stereo not given) | – | inconclusive: 39.8 µM [inhibitor, full curve, poor fit]
45 | CC1(c2cc([N+](=O)[O-])cc([N+](=O)[O-])c2)CC(C)(C)N(C(=O)c2ccccc2)c2ccccc21 (stereo not given) | – | inconclusive: 7.94 µM [inhibitor, full curve]
46 | Cc1ccc(NC(=O)c2sc3nc[nH]c(=O)c3c2C)cc1C | inactive: -0.107% | –
47 | Cc1noc(NS(=O)(=O)c2ccc(NC(=O)/C=C/c3ccc(C(C)C)cc3)cc2)c1C | – | inconclusive: 39.8 µM [inhibitor, partial curve]
48 | CC(=O)c1c(O)cc(=O)n(-c2ccccc2)c1-c1ccc(Cl)cc1 | inactive: 3.75% | –

Row | SMILES | activity change, negative = inhibition | Potency
49 | COC(=O)c1ccc(SC2CCCCC2)c([N+](=O)[O-])c1 | – | inconclusive: 35.5 µM [inhibitor, partial curve]
50 | O=C(CSc1nc2ccc(Cl)cc2o1)NCc1ccc2c(c1)OCO2 | – | inconclusive: 5.01 µM [inhibitor, single point]
51 | CCOCCCn1c(=S)[nH]c2cc(C(=O)NCCc3ccc(OC)c(OC)c3)ccc2c1=O | inactive: -0.582% | –
52 | CCOc1ccc(S(=O)(=O)N2CCCCC2)cc1NC(=O)CN1C(=O)NC(C)(C2CC2)C1=O (stereo not given) | inactive: -12.4% | –
53 | CCC1CCCCN1C(=O)CSc1nc(-c2ccc(OC)cc2)cc(C(F)(F)F)n1 (stereo not given) | inactive: 11.4% [at 57.1 µM] | –
54 | O=C(Nc1cccc(C(=O)N2CCOCC2)c1)c1ncn[nH]1 | – | active: 20 µM
55 | O=C(NC(=S)Nc1ccc(N2CCOCC2)cc1)c1ccccc1 | – | inconclusive: 50.1 µM [inhibitor, partial curve]
56 | COCCNC(=S)N/N=C1\CC(C)CC(C)(C)C1 (stereo not given) | – | inconclusive: 70.8 µM [inhibitor, single point]
57 | COc1cc(-c2nc(-c3ccccc3)c(-c3ccc(F)cc3)[nH]2)cc2c1OCO2 | – | inconclusive: 70.8 µM [inhibitor, single point]
58 | O=C(C1CCCCC1)N1CCN(c2ccccc2F)CC1 | inactive: 11.6% | –
59 | CCn1cnc2cc(NCc3ccc(N(C)C)cc3)ccc21 | – | active: 11.2 µM and active: 10 µM
60 | Clc1cccc(/C(Cc2nc3ccccc3[nH]2)=N\Nc2ccccc2)c1 | inactive: -35.8% | –
61 | COc1ccc(OC)c(/C=N/NC(=S)NCCc2ccccc2)c1 | – | inconclusive: 70.8 µM [inhibitor, single point]
62 | O=C(NC(=S)Nc1ccc(N2CCOCC2)c(Cl)c1)c1cncc(Br)c1 | – | inconclusive: 56.2 µM [inhibitor, partial curve, poor fit]
63 | C=CCn1c(SCC(=O)N2c3ccccc3Sc3ccccc32)nnc1-c1ccco1 | – | inconclusive: 35.5 µM [inhibitor, partial curve]
64 | COc1ccc(NC(=O)C(CCCCNC(=O)OC(C)(C)C)NC(=O)OCc2ccccc2)cc1 (stereo not given) | – | inconclusive: 100 µM [inhibitor, single point]
65 | Cc1ccc(Nc2nc(-c3sc(NC(=O)c4ccc([N+](=O)[O-])cc4)nc3C)cs2)cc1 | – | active: 44.7 µM
66 | O=C(O)c1cccc(CSc2nc(-c3ccc(Cl)cc3)cc(C(F)(F)F)n2)c1 | – | inconclusive: 89.1 µM [inhibitor, single point]
67 | O=C(c1ccc2c3c(cccc13)CC2)C1CCCN(C(=O)c2ccc(=O)[nH]c2)C1 (stereo not given) | – | inconclusive: 79.4 µM [inhibitor, single point]
68 | C=CCNC(=O)c1ccc2c(=O)n(CCCN3CCCC3=O)c(=S)[nH]c2c1 | – | inconclusive: 89.1 µM [inhibitor, single point]
69 | O=C1CSC(=Nc2ccc(O)cc2)N1 | inactive: -13% | –
70 | C=CCn1c(CCC(=O)O)ccc1-c1ccc(OC)cc1 | – | inconclusive: 89.1 µM [inhibitor, single point]

Source: PubChem BioAssay AID504333 (National Center for Advancing Translational Sciences (NCATS), 2011)
